A number of entries come with more than one value. They are shown here; other results are not. The source may hold further records. Values that stand side by side seem to repeat one measurement; a mean can stand among them.
Assay: In vitro release testing (IVRT), static vertical diffusion cell, synthetic membrane, UV-VIS analysis
Assay type: physicochemical
Settings: 0.5% Xylene Cyanol in Petrolatum, infinite dose, amount released vs square root of time, per run
Method: In Vitro Release Testing Method.
Release of pharmaceutically active compounds from semi-solid dosage forms was evaluated in an in vitro model of static vertical diffusion cell using a synthetic membrane model. […] The samples were analyzed using a UV-VIS spectrometer. […]
Test time points: 0, 2, 4, 6, 8, and 10 hours. Each test was conducted in four replicates (N=4). Square root of test time points: 0, 1.41, 2.00, 2.45, 2.83, and 3.16.
Membrane: Polypropylene (pore size: 0.45 micron).
Static vertical diffusion cell parameters: Area of the membrane diffusion area: 0.95 square centimeters.
Dosing level: infinite dose at about 3.0 milliliter of the semi-solid dosage form.
Static vertical diffusion cell consists of a donor and receptor compartment separated by a synthetic membrane. The dosing compartment was for the dosed semi-solid dosage form. […] Before dosing, the diffusion cell was pre-incubated at 32° C. for about 20 to 45 minutes. The t=0 samples were taken after the incubation period prior to dosing.
During the experiment, the receptor fluid was in intimate contact with the membrane through a mixing mechanism, such as, e.g., magnetic stirring bar, or orbit shaker, and maintained at 32° C. using a heating mechanism, such as, e.g., dry heat block, or circulating water bath. […]

CCN=C1C=CC(=C(c2ccc(NCC)c(C)c2)c2ccc(S(=O)(=O)[O-])cc2S(=O)(=O)O)C=C1C.[Na+] [Xylene Cyanol]
Slope (release rate) (receptor fluid: 1-Octanol:H2O 1:1 v:v): 1.9686 mcg/cm2/h^0.5, 2.2516 mcg/cm2/h^0.5, 2.1875 mcg/cm2/h^0.5, 2.4026 mcg/cm2/h^0.5 [columns of one line]
Slope (release rate) (receptor fluid: 1-Octanol:PBS Buffer pH 7.4 1:1 v:v): 1.1014 mcg/cm2/h^0.5, 1.4283 mcg/cm2/h^0.5, 1.0060 mcg/cm2/h^0.5, 1.0163 mcg/cm2/h^0.5 [columns of one line]

— patent publication US20180292376A1, “DIFFUSION CELL TESTING METHODS CONTAINING BIPHASIC RECEPTOR FLUIDS” (BUFFERAD Illinois Inc. d/b/a Zyleris PharmaTech, Inc., priority 2017, published 2018)
